Measured values as given in the supplement of paper PMC7826260.
Some of the results follow. Cleavage of a single-stranded DNA pool by Rep nickase domains was read by sequencing at 3 µM enzyme and 37 °C for 1 h; the strands have 90 letters, of which the middle is given. Numbers give uncut DNA relative to the enzyme-free pool, as log2; strong cutting gives strongly negative numbers. There is no active / inactive call. Counts are relative to all reads; values above 0 arise when much of the pool is cut.

Columns and labels:
Experiment in all cases: uncleaved DNA left, log2 of reads against the no-enzyme library (log2 ratio); higher = less cleavage (more negative = more Rep cleavage of the k-mer); sequences stand for … in CTCGTCCG…ACCGGAGA
[1] = system: T1, Rep nickase domain of Muscovy duck circovirus
T1 sequence (Rep 1-111, printed without the tag): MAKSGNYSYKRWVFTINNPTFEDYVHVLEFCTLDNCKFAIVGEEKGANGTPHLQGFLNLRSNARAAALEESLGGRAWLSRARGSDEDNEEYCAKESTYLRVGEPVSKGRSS
Description: (§1)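 A pool of 90-nt single-stranded DNAs with seven random bases just before the constant AC of the nick site (name = the seven bases) was cut by 3 µM recombinant His6-SUMO-tagged Rep nickase domain (300 nM DNA, 50 mM HEPES pH 8.0, 50 mM NaCl, 1 mM MnCl2, 1 h, 37 °C, three replicates). Uncut DNA was amplified and sequenced.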

[2] = system: T2, Rep nickase domain of banana bunchy top virus
T2 sequence (Rep 1-94, printed without the tag): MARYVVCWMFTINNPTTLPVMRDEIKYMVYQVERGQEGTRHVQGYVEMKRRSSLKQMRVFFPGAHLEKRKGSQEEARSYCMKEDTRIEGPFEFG
Description: as §1

[3] = system: T3, Rep nickase domain of cabbage leaf curl virus
T3 sequence (Rep 1-116, printed without the tag): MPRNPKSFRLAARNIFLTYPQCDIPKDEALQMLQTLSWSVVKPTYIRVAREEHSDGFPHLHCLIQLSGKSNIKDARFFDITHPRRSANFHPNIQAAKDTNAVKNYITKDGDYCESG
Description: as §1

[4] = system: T4, Rep nickase domain of chickpea chlorotic dwarf virus
T4 sequence (Rep 1-124, printed without the tag): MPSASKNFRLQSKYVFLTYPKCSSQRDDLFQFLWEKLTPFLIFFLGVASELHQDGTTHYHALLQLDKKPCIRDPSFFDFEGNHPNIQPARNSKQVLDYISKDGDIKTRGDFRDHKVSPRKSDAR
Description: as §1

[5] = system: T5, Rep nickase domain of faba bean necrotic yellows virus
T5 sequence (Rep 1-98, printed without the tag): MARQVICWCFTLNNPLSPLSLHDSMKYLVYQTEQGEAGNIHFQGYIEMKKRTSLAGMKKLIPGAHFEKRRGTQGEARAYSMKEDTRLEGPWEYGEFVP
Description: as §1

[6] = system: T6, Rep nickase domain of maize striate mosaic virus
T6 sequence (Rep 1-117, printed without the tag): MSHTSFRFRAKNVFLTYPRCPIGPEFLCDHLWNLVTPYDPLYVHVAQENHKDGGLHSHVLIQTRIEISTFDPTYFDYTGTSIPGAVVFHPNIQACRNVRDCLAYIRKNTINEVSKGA
Description: as §1

[7] = system: T7, Rep nickase domain of porcine circovirus 2
T7 sequence (Rep 2-116, printed without the tag): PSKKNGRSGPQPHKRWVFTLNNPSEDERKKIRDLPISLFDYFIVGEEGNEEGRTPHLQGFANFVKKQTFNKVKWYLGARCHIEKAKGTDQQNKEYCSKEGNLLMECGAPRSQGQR
Description: as §1

[8] = system: T8, Rep nickase domain of tomato yellow leaf curl virus
T8 sequence (Rep 1-136, printed without the tag): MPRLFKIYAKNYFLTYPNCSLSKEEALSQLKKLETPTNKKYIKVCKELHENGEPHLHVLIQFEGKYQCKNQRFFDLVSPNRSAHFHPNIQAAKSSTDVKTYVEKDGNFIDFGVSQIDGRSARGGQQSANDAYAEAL
Description: as §1

[9] = system: T9, Rep nickase domain of wheat dwarf virus
T9 sequence (Rep 1-137, printed without the tag): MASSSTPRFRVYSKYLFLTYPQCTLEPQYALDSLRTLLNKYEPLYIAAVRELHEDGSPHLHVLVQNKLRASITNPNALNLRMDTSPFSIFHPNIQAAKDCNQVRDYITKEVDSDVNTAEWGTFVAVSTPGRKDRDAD
Description: as §1

Row | Sequence | uncleaved DNA left (log2) [1] | uncleaved DNA left (log2) [2] | uncleaved DNA left (log2) [3] | uncleaved DNA left (log2) [4] | uncleaved DNA left (log2) [5] | uncleaved DNA left (log2) [6] | uncleaved DNA left (log2) [7] | uncleaved DNA left (log2) [8] | uncleaved DNA left (log2) [9]
1 | TGCCGCA | -0.0538 | -0.219 | -0.245 | -0.5 | -0.0447 | -0.741 | -0.0342 | 0.0177 | -0.0723
2 | CGTCGGA | 0.0177 | 0.0486 | 0.0789 | 0.356 | -0.00322 | 0.124 | 0.0764 | 0.0501 | -0.167
3 | GTTCCTG | -0.00604 | 0.0606 | 0.173 | 0.46 | -0.0521 | 0.888 | -0.141 | 0.0471 | 0.0299
4 | TAGTGGC | 0.00387 | -0.00835 | -0.179 | -0.403 | -0.102 | -0.861 | -0.358 | 0.0193 | 0.00244
5 | ACCAGCA | -0.0148 | 0.0517 | -0.538 | -0.733 | 0.122 | -1.05 | 0.0843 | 0.18 | 0.00511
6 | TCGATCA | 0.0268 | -0.00324 | 0.332 | -0.194 | 0.00749 | 0.372 | -0.0644 | 0.0736 | 0.041
7 | AGACTAT | 0.117 | 0.098 | 0.607 | 0.897 | 0.0975 | 1.58 | 0.0919 | 0.0942 | 0.16
8 | AACATTC | 0.0022 | -0.0384 | -0.241 | -0.235 | 0.0341 | -1.02 | 0.146 | 0.0671 | 0.00763
9 | AGTTCAT | -0.0678 | 0.12 | 0.249 | 0.207 | 0.119 | 0.276 | -3.13 | 0.203 | 0.17
10 | CTTTCAG | 0.0372 | 0.0298 | -0.655 | -0.553 | 0.0534 | -0.969 | 0.0995 | -0.0115 | -0.158
11 | CCATTTT | -3.23 | -0.161 | -0.898 | -2.64 | 0.00337 | -1.22 | -3.3 | 0.219 | -0.25
12 | GCCTGCG | -0.00442 | -0.0722 | -0.0545 | 1.21 | 0.00292 | 0.819 | 0.111 | -0.19 | 0.00783
13 | TAGATTC | 0.131 | 0.0875 | -0.0162 | -0.568 | -0.0191 | -0.531 | -0.518 | 0.0449 | 0.0612
14 | GGAGTCT | 0.109 | 0.00486 | 0.633 | 1.24 | -0.0695 | 1.96 | 0.0207 | 0.152 | 0.149
15 | CGCTCCT | -0.304 | -0.00396 | -0.0993 | -1.23 | -0.102 | 0.0323 | -0.947 | -0.000502 | -0.0436
16 | CCCACAT | 0.0912 | -0.0133 | 0.36 | -0.182 | 0.011 | -0.00978 | 0.0086 | 0.0256 | 0.0738
17 | GTAGGCC | -0.046 | 0.162 | 0.42 | 1.01 | -0.12 | 1.21 | -0.0492 | 0.153 | 0.156
18 | GTTGGCT | 0.137 | 0.18 | 0.347 | 0.691 | 0.0829 | 0.839 | 0.228 | 0.192 | 0.0771
19 | GAGCTCT | -0.0385 | 0.0708 | 0.0829 | -1.66 | -0.148 | 0.778 | -2.51 | 0.0843 | 0.0539

Row | Sequence | uncleaved DNA left (log2) [1] | uncleaved DNA left (log2) [2] | uncleaved DNA left (log2) [3] | uncleaved DNA left (log2) [4] | uncleaved DNA left (log2) [5] | uncleaved DNA left (log2) [6] | uncleaved DNA left (log2) [7] | uncleaved DNA left (log2) [8] | uncleaved DNA left (log2) [9]
20 | TATGCGT | 0.00101 | -0.114 | -1.01 | -0.207 | -0.121 | -1.08 | -0.0692 | 0.0138 | -0.146
21 | CAGCTTC | 0.0822 | -0.0835 | -0.103 | -0.753 | -0.0338 | -0.613 | -0.306 | -0.0177 | -0.0323
22 | CAGCGAT | 0.209 | 0.2 | 0.386 | 1.43 | 0.256 | 1.67 | 0.208 | 0.00143 | 0.0909
23 | CGACCTT | -0.0615 | -0.0837 | 0.0829 | -0.0538 | 0.0642 | 0.852 | -0.102 | 0.0508 | 0.0414
24 | GACCTGC | -0.0796 | -0.00748 | -0.159 | -0.0393 | -0.103 | -0.586 | -0.0637 | 0.0316 | -0.144
25 | AACATAT | 0.0982 | 0.0544 | -0.0549 | -1.55 | 0.0351 | -0.497 | -0.924 | -0.0976 | 0.000442
26 | AACTTAG | -0.0128 | 0.067 | -0.721 | -0.555 | 0.0722 | -1.27 | 0.158 | 0.119 | -0.0177
27 | TTGTGCG | -0.0363 | -0.0379 | -0.396 | 0.984 | -0.0231 | 0.353 | -0.0461 | -0.373 | -0.112
28 | ATATGTC | -0.354 | -0.169 | -0.207 | -0.317 | 0.0194 | -1.04 | -0.0592 | -0.0642 | -0.0765
29 | TGACGCT | -0.0356 | -0.163 | -0.228 | -1.38 | -0.14 | -0.51 | -0.195 | -0.115 | -0.224
30 | GAGACTG | 0.0267 | 0.0896 | 0.187 | 0.81 | 0.0438 | 1.8 | 0.126 | 0.0862 | 0.104
31 | TTGGTAG | 0.0296 | -0.0244 | -0.654 | -0.519 | -0.0188 | -1.15 | 0.0524 | -0.0439 | -0.096
32 | CTGCCGA | -0.0575 | -0.0328 | -0.171 | -0.253 | -0.0153 | -0.521 | 0.0311 | 0.0684 | -0.12
33 | TGCTGCG | -0.00401 | -0.0489 | -0.337 | 0.898 | -0.00821 | 0.408 | 0.0751 | -0.325 | -0.204
34 | GCTAATC | 0.0141 | 0.068 | 0.309 | 0.473 | -0.0193 | 0.12 | 0.0778 | 0.0904 | 0.167
35 | GGAGAAG | 0.0818 | -0.0585 | 0.252 | 0.8 | -0.0655 | 0.287 | 0.0773 | -0.0338 | 0.00841
36 | AATGTGT | 0.0149 | -0.107 | -0.333 | -0.737 | 0.0657 | -0.835 | -0.319 | -0.0429 | -0.00657
37 | CATTGAC | 0.0803 | 0.0517 | -0.599 | -0.355 | 0.00419 | -0.954 | 0.186 | 0.141 | 0.0931
38 | TTAGATA | 0.123 | 0.0125 | 0.203 | -0.959 | 0.0175 | 0.163 | 0.0807 | 0.019 | 0.0173

Row | Sequence | uncleaved DNA left (log2) [1] | uncleaved DNA left (log2) [2] | uncleaved DNA left (log2) [3] | uncleaved DNA left (log2) [4] | uncleaved DNA left (log2) [5] | uncleaved DNA left (log2) [6] | uncleaved DNA left (log2) [7] | uncleaved DNA left (log2) [8] | uncleaved DNA left (log2) [9]
39 | AGGTGCA | -0.0593 | -0.0201 | -0.103 | -0.241 | -0.0624 | -0.622 | -0.0665 | 0.104 | -0.0445
40 | ATATTAT | -0.863 | 0.055 | -0.178 | -1.28 | 0.0908 | -0.576 | -1.8 | 0.0826 | -0.00334
41 | TTTACGG | -0.045 | 0.0604 | 0.529 | 1.59 | -0.0135 | 2.14 | 0.11 | -0.113 | 0.00353
42 | ATCTGGA | 0.167 | 0.0562 | -0.00474 | 0.23 | -0.0289 | 0.109 | 0.0887 | 0.0393 | 0.118
43 | CGAGAAT | 0.217 | 0.185 | 0.166 | 0.364 | 0.0557 | 0.433 | -0.068 | 0.0724 | 0.138
44 | TTGGAAT | 0.0459 | 0.155 | 0.299 | 1.05 | 0.0842 | 1.4 | 0.138 | 0.0275 | 0.0253
45 | CTGGCAG | 0.021 | -0.0943 | -0.561 | -0.426 | 0.0812 | -0.866 | 0.134 | -0.145 | -0.145
46 | ACGCTGC | 0.0532 | 0.0182 | -0.425 | -0.205 | 0.142 | -0.618 | 0.184 | -0.00769 | -0.0881
47 | ACTAGAC | 0.00634 | 0.052 | 0.0831 | 0.429 | 0.0689 | -0.279 | 0.171 | 0.0933 | 0.131
48 | GAGACAT | 0.144 | 0.157 | 1.02 | 2.27 | 0.0335 | 2.36 | 0.216 | 0.101 | 0.245
49 | AATCTCT | 0.188 | 0.0662 | -0.193 | -2.17 | 0.044 | 0.802 | -0.478 | 0.0718 | 0.152
50 | TTGCCGA | -0.00832 | -0.207 | -0.856 | -0.492 | -0.102 | -0.96 | -0.19 | -0.00668 | -0.261
51 | CTAGTCC | 0.108 | 0.101 | 0.181 | -0.102 | 0.0148 | -0.0323 | 0.138 | -0.0595 | 0.0812
52 | ATGCCTA | -0.0716 | -0.122 | -0.14 | -0.854 | -0.000472 | -0.624 | -0.277 | -0.0752 | -0.0939
53 | CTCCACG | 0.0656 | 0.0995 | -0.739 | -0.159 | -0.0122 | -1.11 | 0.102 | 0.0641 | -0.0233
54 | CTGCATG | 0.117 | -0.0268 | -0.661 | -0.53 | -0.0409 | -1.11 | 0.135 | -0.00605 | -0.0848
55 | CCGGTTA | -0.00866 | 0.0207 | 0.0661 | -0.0634 | -0.0818 | 0.874 | 0.0253 | -0.0824 | -0.209
56 | CACCACT | -0.285 | -0.162 | -0.856 | -3.15 | -0.153 | -1.15 | -1.59 | -0.0706 | -0.142
